Results reported in PubChem BioAssay AID1768 (National Center for Advancing Translational Sciences (NCATS), 2009).
Hit rate of the full screen: of about 270,000 compounds, about 620 (0.23%) were called active. Inconclusive means that the source gave no clear call. Such entries were picked first, then a sample of the others. Calls follow the shape of the dose curve; as a rule, active = well fitted inhibition curve with a large enough effect in the polarisation, with a control signal flat (not every such curve was filed as active); inconclusive = small, poorly fitted or top-dose-only effect, or effect the other way, or a change in a side signal; inactive = no such curve, though single readings can be large or run the other way; the % refers to the polarisation. Potencies of inconclusive entries are doubtful fits and often do not repeat. A note “side channel” means that the fit belongs to a control or component signal, not to the main read-out.

Molecular target: Menin (Homo sapiens) (UniProt O00255)
UniProt O00255, sequence (O00255 whole entry, looked up): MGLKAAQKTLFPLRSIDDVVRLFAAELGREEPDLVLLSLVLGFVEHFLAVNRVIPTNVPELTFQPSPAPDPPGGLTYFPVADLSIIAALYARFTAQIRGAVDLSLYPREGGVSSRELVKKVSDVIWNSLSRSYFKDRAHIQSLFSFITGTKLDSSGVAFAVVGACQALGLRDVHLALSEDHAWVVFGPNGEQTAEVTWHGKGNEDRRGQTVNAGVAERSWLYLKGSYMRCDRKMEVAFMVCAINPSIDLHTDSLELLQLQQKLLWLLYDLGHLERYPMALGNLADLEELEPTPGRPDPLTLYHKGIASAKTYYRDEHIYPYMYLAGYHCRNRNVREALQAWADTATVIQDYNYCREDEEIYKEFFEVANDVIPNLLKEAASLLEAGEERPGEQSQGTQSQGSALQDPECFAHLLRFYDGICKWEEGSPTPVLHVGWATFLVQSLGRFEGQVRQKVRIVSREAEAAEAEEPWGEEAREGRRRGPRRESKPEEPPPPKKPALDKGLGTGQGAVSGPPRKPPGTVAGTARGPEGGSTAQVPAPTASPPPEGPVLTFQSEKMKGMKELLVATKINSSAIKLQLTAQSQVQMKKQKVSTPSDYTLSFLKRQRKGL
Experiment: qHTS Assay for Inhibitors Targeting the Menin-MLL Interaction in MLL Related Leukemias: Competition With Texas Red Labeled MLL-derived Mutant Peptide; as to FP activity change, negative = inhibition: % of control where 0% means no effect
Details: fluorescence polarization; FP activity change, negative = inhibition: at 61.6 µM (top of the series)
Potency is read from the fitted curve at half-maximal effect; tags tell the direction and shape of the fitted curve or compound fluorescence and quenching.

Row | Compound | Potency | FP activity change, negative = inhibition
1 | O=C(NC(Nc1nc2ccc([N+](=O)[O-])cc2s1)(C(F)(F)F)C(F)(F)F)c1cccnc1 | inconclusive: 28.2 µM [quencher, side channel, single point] | 
2 | COC(=O)c1ccc(C(C(=O)NC2CCCCC2)N(Cc2ccc(F)cc2)C(=O)Cc2cccs2)cc1 (configuration not stated) | inconclusive: 8.91 µM [inhibitor, full curve, poor fit] | 
3 | CN(C)c1cc(-c2ccccc2)nc(-c2ccccc2)n1 | inconclusive: 35.5 µM [fluorescent, side channel, single point] | 
4 | CC(C)c1ccc(-c2nn(-c3ccccc3)cc2C2C(C#N)=C(N)OC3=C2C(=O)CC(C)(C)C3)cc1 (configuration not stated) | inconclusive: 39.8 µM [inhibitor, single point] | 
5 | CC1CCCN(c2nc3ccccc3nc2C(C#N)S(=O)(=O)c2ccccc2)C1 (configuration not stated) | inconclusive: 17.8 µM [quencher, side channel, partial curve] | 
6 | COc1ccc(-c2csc(NC(C)=O)n2)cc1OC | inconclusive: 17.8 µM [inhibitor, partial curve] | 
7 | CC(/C=C1\NC(=S)NC1=O)=C\c1ccccc1 |  | inactive: -29.5%
8 | CNC(=S)N1CCN(c2ccc(Cl)c(Cl)c2)CC1 | inconclusive: 17.8 µM [quencher, side channel, partial curve] | 
9 | Cc1ccc(C(=O)Nc2ccccc2)cc1S(=O)(=O)Nc1ccc(Cl)cn1 | inconclusive: 15.8 µM [quencher, side channel, partial curve] | 
10 | COc1ccc(C(=O)Nc2nncs2)cc1S(=O)(=O)N1CCOCC1 | inconclusive: 5.01 µM [inhibitor, full curve] | 
11 | CCc1ccc2c(c1)C1(NN=C(c3ccccc3)S1)C(=O)N2 (configuration not stated) | inconclusive: 28.2 µM [quencher, side channel, single point] | 
12 | O=C(COC(=O)c1cc(=O)[nH]c(=O)[nH]1)NCc1ccccc1 | inconclusive: 12.6 µM [inhibitor, partial curve] | 
13 | Cn1nc(-c2ccccc2)c(N2CCCCC2)cc1=O |  | inactive: -5.69%
14 | O=C(c1cc(COc2ccc(F)cc2F)on1)N1CC[C@@H]2CCCC[C@H]2C1 | inconclusive: 39.8 µM [fluorescent, side channel, partial curve] | 
15 | Cc1ccc(Cl)cc1Nc1nc(-c2cccnc2)cs1 | inconclusive: 31.6 µM [quencher, partial curve] | 
16 | CCCC(=O)Nc1ccc(C(=O)Nc2cc(C(F)(F)F)ccc2Cl)cc1 | inconclusive: 39.8 µM [fluorescent, side channel, single point] | 
17 | C=CCN1C(=O)/C(=C2/Sc3ccccc3N2CC)SC1=S | inconclusive: 22.4 µM [quencher, side channel, partial curve] | 
18 | O=C(O)CC[C@H](NC(=O)c1ccccc1C(=O)O)C(=O)O |  | inactive: -2.35%
19 | Cc1ccc(Nc2nc(-c3sc(N)nc3C)cs2)cc1 | inconclusive: 15.8 µM [quencher, side channel, partial curve] | 

Row | Compound | Potency | FP activity change, negative = inhibition
20 | CCN1CCN(CCNC(=O)c2ccc(/C=C3/Sc4ccccc4N(Cc4cccc(C)c4)C3=O)cc2)CC1 | inconclusive: 7.94 µM [fluorescent, side channel, partial curve] | 
21 | CCOc1cc(/C=C2\CN(C)C/C(=C\c3ccc(O)c(OCC)c3)C2=O)ccc1O | inconclusive: 28.2 µM [quencher, side channel, single point] | 
22 | CCN(CC)S(=O)(=O)c1ccc(-c2nnc(SCC(=O)c3ccc(OC)cc3)o2)cc1 | inconclusive: 31.6 µM [fluorescent, side channel, single point] | 
23 | NC(=S)n1[nH]c(-c2ccc([N+](=O)[O-])cc2)c(N=Nc2ccc(O)cc2)c1=O | inconclusive: 11.2 µM [quencher, side channel, partial curve] | 
24 | Cc1ccc(COn2c(-c3ccc(Cl)cc3Cl)nc3ncccc32)cc1 | inconclusive: 12.6 µM [fluorescent, side channel, partial curve] | 
25 | C/C(CCN1CCCc2nc(C)c(C)cc21)=N\OC[C@@H](C)[C@H](OCc1ccccc1)C(C)C | inconclusive: 3.55 µM [inhibitor, partial curve, poor fit] | 
26 | COc1ccc(C2CC(c3ccccc3)=NN2c2ccc(N)cc2)cc1 (configuration not stated) | inconclusive: 28.2 µM [quencher, side channel, single point] | 
27 | O=C(NNC(=O)c1cc2ccccc2cc1O)Nc1ccc(Br)cc1 | inconclusive: 39.8 µM [quencher, side channel, single point] | 
28 | CCn1c(-c2nn(-c3ccccc3)ccc2=O)n[nH]c1=S |  | inactive: 0.136%
29 | O=C(O)c1cccc(-n2cccc2/C=C2/NC(=O)N(c3ccc(Cl)cc3)C2=O)c1 | inconclusive: 25.1 µM [quencher, side channel, single point] | 
30 | O=C(NC(=S)NCCN1CCOCC1)c1ccccc1Br |  | inactive: -1.28%
31 | O=C(Nc1cccc(S(=O)(=O)N2CCOCC2)c1)c1cc2c(s1)CCC2 | inconclusive: 25.1 µM [quencher, side channel, partial curve] | 
32 | Nc1ncc(-c2ccccc2)n1CC1CCCO1 (configuration not stated) | inconclusive: 3.98 µM [inhibitor, partial curve] | 
33 | Cc1cc(/C=C2\SC(=S)N(Cc3ccco3)C2=O)c(C)n1-c1ccccc1 | inconclusive: 25.1 µM [quencher, side channel, single point] | 
34 | COc1cc(COc2ccc3c(C)c(Cc4ccccc4)c(=O)oc3c2)cc(OC)c1OC |  | inactive: -9.46%
35 | COc1cccc(CN(C)CC(=O)NCc2ccc(C)cc2)c1 | inconclusive: 10 µM [fluorescent, side channel, partial curve, poor fit] | 
36 | CCOc1ccc(S(=O)(=O)N(C)c2ccc(OCC(=O)Nc3ccc4[nH]c(=O)[nH]c4c3)cc2)cc1 | inconclusive: 35.5 µM [quencher, side channel, single point] | 
37 | COc1ncccc1C(=O)NC1CCCc2c1cnn2-c1cc(C)cc(C)c1 (configuration not stated) | inconclusive: 7.08 µM [fluorescent, side channel, partial curve] | 
